From PubChem BioAssay (Tox21)
“And” between values parts separate entries of the source, which are not always exact repeats. Equal values may be shown once. This list was built around the results that the source calls inconclusive (neither active nor inactive); the mix of calls is not that of the screen. For part of these data: A potency beside an inconclusive call is a rough fit, not a confirmed value. Some compounds were tested as several samples or in several runs, with calls that do not always agree. The source made the active and inactive calls. Unless noted, calls come from the whole dose curve; as a rule, active = well fitted curve in the direction sought with a large enough effect in the repeat runs; inconclusive = weak or mixed curves; inactive = no such curve, though single readings can be large; an effect the other way counts as inactive or inconclusive.

How the values were obtained:
[1] = qHTS assay for small molecule agonists of the p53 signaling pathway (AID 651631; calls by dose curve; note: nearly all actives have a fitted effect of over 15% in size; for activation: % is set by controls: 0 for no effect and ±100 for the full control effect); details: HCT-116 p53RE-bla reporter, beta-lactamase FRET ratio, 16 h; activation: at 73.3 µM (top of the series) unless noted
Summary of the method: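 p53RE-bla HCT-116 cells; compounds 16 h, 37 °C; LiveBLAzer B/G FRET substrate 2 h RT; fluorescence intensity read-out, qHTS format.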

[2] = qHTS assay for small molecule disruptors of the mitochondrial membrane potential (AID 720635); details: HepG2 mitochondrial membrane potential, Mito-MPS dye ratio; for ratio activity, negative = MMP loss: % is set by controls: 0 for no effect and ±100 for the full control effect
Summary of the method: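 HepG2 cells (2,000/well) attached overnight at 37C, then took compound for 1 hr at 37C, 5% CO2. Mito-MPS dye was added for 30 min; fluorescence was read at 490/535 nm (monomers) and 540/590 nm (aggregates).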

[3] = target: Glucocorticoid receptor (Homo sapiens) (UniProt P04150); experiment: qHTS assay to identify small molecule agonists of the glucocorticoid receptor (GR) signaling pathway (AID 720691; active = well fitted activation curve with a large enough effect in the signal ratio in the repeat runs, not every such curve was filed as active; inconclusive = weak or mixed curves, or effect the other way; inactive = no such curve, though single readings can be large or run the other way; the % refers to the signal ratio; for activation: % is set by controls: 0 for no effect and ±100 for the full control effect); details: GR-bla HeLa, beta-lactamase reporter ratio, 18 h; activation: at 62.4 µM (top of the series) unless noted
Summary of the method: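 Fluorescence intensity from LiveBLAzer B/G FRET substrate (2 h, room temperature) reports beta-lactamase expression driven by the glucocorticoid response element in GR-bla HeLa cells after 18 h compound exposure at 37 C.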

[4] = target: Glucocorticoid receptor (Homo sapiens) (UniProt P04150); experiment: qHTS assay to identify small molecule antagonists of the glucocorticoid receptor (GR) signaling pathway (AID 720692; active = well fitted inhibition curve with a large enough effect in the signal ratio in the repeat runs, not every such curve was filed as active; inconclusive = weak or mixed curves, or effect the other way; inactive = no such curve, though single readings can be large or run the other way; the % refers to the signal ratio; for activity change, negative = inhibition: % is set by controls: 0 for no effect and ±100 for the full control effect); details: GR-bla HeLa, beta-lactamase FRET ratio, dexamethasone-stimulated, 18 h
Summary of the method: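 HeLa GR-bla cells; cmpd + dex 5 nM final, 18 h 37 C; LiveBLAzer B/G FRET substrate 2 h RT; fluorescence intensity read. Antagonist mode, qHTS.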

[5] = qHTS assay to identify small molecule antagonists of the glucocorticoid receptor (GR) signaling pathway - cell viability counter screen (AID 720693); details: GR-bla HeLa viability, CellTiter-Glo luminescence, 18 h, with 5 nM dexamethasone present; viability change, negative = cytotoxic: at 58.5 µM (top of the series); note: nearly all actives have a fitted effect of over 55% in size
[6] = qHTS assay for small molecules that induce genotoxicity in human embryonic kidney cells expressing luciferase-tagged ATAD5 (AID 651632); note: nearly all actives have a fitted effect of over 15% in size
Summary of the method: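 ATAD5-luc HEK293T, 2,000 cells/well; cpd or DMSO pin-transferred; 16 hr, 37C/5% CO2; Amplite 30 min RT; luminescence.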

[7] = qHTS assay for small molecule agonists of the p53 signaling pathway - cell viability (AID 651633; calls by dose curve; note: nearly all actives have a fitted effect of over 30% in size)
Summary of the method: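 p53RE-bla cells, seeded at 4,000 per well and rested 5 h at 37 C/5% CO2, received compounds in DMSO for 16 h at 37 C. CellTiter-Glo was then added, and luminescence was read after 30 min at room temperature to gauge cytotoxicity.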

[8] = qHTS assay to test for compound auto fluorescence at 460 nm (blue) in HEK293 cells (AID 720678); details: blue autofluorescence 405/460 nm
Summary of the method: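 After cell attachment (4-5 hr, 37C), compounds were pinned onto HEK293 monolayers in 10% dialyzed FBS medium. The blue channel (405/460 nm) was read following overnight culture. Equivalency was calculated against triamterene.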

[9] = qHTS assay for identifying genotoxic compounds that show differential cytotoxicity against isogenic chicken DT40 cell lines with known DNA damage response pathways - wild type cell line (AID 743012); details: DT40 wild type chicken cells viability, CellTiter-Glo, 40 h; activity change, negative = cytotoxicity: at 68.4 µM (top of the series); note: nearly all actives have a fitted effect of over 60% in size
Summary of the method: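 Wild type DT40, 300 cells/well, ~0.5 h settle at 37 C/5% CO2; compounds in DMSO added by pintool; 40 h at 37 C/5% CO2; CellTiter-Glo, 30 min RT; luminescence.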

[10] = qHTS assay for small molecule disruptors of the mitochondrial membrane potential - cell viability (AID 720634; calls by dose curve; note: nearly all actives have a fitted effect of over 20% in size)
Summary of the method: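 Cells: HepG2, 2,000/well, attached overnight. Compound 1 hr, 37 C/5% CO2. +m-MPI dye, +CellTiter-Glo 30 min RT. Readout: luminescence (ATP).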

[11] = qHTS assay to test for compound auto fluorescence at 535 nm (green) in HepG2 cells (AID 720675); details: green autofluorescence 485/535 nm, 1 h
[12] = qHTS assay to test for compound auto fluorescence at 535 nm (green) in HepG2 cell free culture (AID 720686); details: Cell-free medium, green autofluorescence 485/535 nm
[13] = ratio activity, negative = MMP loss: at 83.2 µM (top of the series) unless noted
[14] = activity change, negative = inhibition: at 58.5 µM (top of the series) unless noted
Potency is the fitted concentration of half-maximal effect; tags give direction and shape of the fitted curve or compound fluorescence and quenching.

UniProt P04150, sequence (P04150 whole entry, looked up): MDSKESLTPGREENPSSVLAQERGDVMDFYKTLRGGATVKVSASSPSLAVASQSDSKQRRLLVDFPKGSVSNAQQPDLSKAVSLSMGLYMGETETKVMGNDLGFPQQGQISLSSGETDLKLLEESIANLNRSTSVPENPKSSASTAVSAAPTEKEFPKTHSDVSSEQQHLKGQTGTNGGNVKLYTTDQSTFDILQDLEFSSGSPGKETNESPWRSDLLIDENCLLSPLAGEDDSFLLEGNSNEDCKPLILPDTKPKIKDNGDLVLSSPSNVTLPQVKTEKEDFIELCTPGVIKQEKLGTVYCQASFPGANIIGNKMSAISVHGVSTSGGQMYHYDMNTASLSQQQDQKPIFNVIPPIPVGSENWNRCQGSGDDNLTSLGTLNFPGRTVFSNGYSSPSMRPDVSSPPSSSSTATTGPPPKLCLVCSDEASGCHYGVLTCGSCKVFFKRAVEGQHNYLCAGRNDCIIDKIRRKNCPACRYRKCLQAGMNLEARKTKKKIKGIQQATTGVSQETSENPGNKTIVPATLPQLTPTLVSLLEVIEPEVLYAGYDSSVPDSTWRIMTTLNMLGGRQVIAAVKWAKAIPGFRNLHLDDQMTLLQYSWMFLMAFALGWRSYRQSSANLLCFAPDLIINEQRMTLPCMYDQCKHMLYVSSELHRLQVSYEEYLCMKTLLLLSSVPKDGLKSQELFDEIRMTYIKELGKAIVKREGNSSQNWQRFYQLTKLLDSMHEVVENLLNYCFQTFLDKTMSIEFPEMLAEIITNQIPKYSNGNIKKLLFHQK

CC(C)(C)c1cc(/C=C2\SC(=N)NC2=O)cc(C(C)(C)C)c1O
Potency [1]: inconclusive: 54.5 µM [falling, partial curve]
Potency [2, 13]: active: 12.2 µM
Potency [3]: inconclusive: 54.9 µM [cytotoxic, single point]
Potency [4, 14]: inconclusive: 61.6 µM [cytotoxic, single point]
Potency [5]: inconclusive: 54.9 µM [cytotoxic, single point]

CCCCCCCCOC(=O)c1cc(O)c(O)c(O)c1
Potency [1]: active: 61.1 µM
Potency [3]: inconclusive: 38.9 µM [cytotoxic, partial curve]
Potency [4, 14]: inconclusive: 8.71 µM [rising, full curve]
Potency [5]: inconclusive: 54.9 µM [cytotoxic, single point]

CCCNC(=O)NS(=O)(=O)c1ccc(Cl)cc1
Potency [1]: inactive
activity change, negative = inhibition [4, 14]: inconclusive: -6.87%
activity change, negative = inhibition ([4]; at 58.5 µM (top of the series)): inactive: 8.5% and inactive: -1.35%

CC(C)Cc1ccccc1
Potency [6]: inconclusive: 75.8 µM [activator, partial curve, poor fit]
ratio activity, negative = MMP loss ([2]; at 83.2 µM (top of the series)): inactive: 14.5%
ratio activity, negative = MMP loss [2, 13]: inconclusive: 11%

S=P(N1CC1)(N1CC1)N1CC1
Potency [1]: inconclusive: 13.3 µM [activator, partial curve] and active: 14.4 µM
Potency [2, 13]: inconclusive: 0.229 µM [activator, full curve, poor fit]
Potency [5]: inconclusive: 51.6 µM [rising, partial curve, poor fit]

Oc1ccc(O)cc1
Potency [6]: inconclusive: 54.2 µM [activator, partial curve, poor fit]
Potency [7]: active: 21.1 µM and active: 13.6 µM and active: 17.2 µM
ratio activity, negative = MMP loss [2, 13]: inconclusive: 9.35%
Potency [8]: inconclusive: 50.1 µM [fluorescent, partial curve, poor fit]
Potency [4, 14]: inconclusive: 53.5 µM [inhibitor, single point] and inconclusive: 97.1 µM [cytotoxic, single point] and inconclusive: 61.6 µM [inhibitor, single point]
Potency [5]: inconclusive: 54.9 µM [cytotoxic, single point]
Potency [9]: active: 23.7 µM and active: 9.63 µM and active: 61.1 µM

Nc1ccc(S(=O)(=O)Nc2cnc3ccccc3n2)cc1
Potency [1]: inactive
ratio activity, negative = MMP loss [2, 13]: inconclusive: -46.9%
Potency [4, 14]: inactive

Nc1cc(Cl)c([N+](=O)[O-])cc1O
Potency [1]: inconclusive: 27.1 µM [falling, partial curve, poor fit]
Potency [3]: inactive
Potency [9]: inconclusive: 7.63 µM [rising, full curve, poor fit]

c1ccc2c(c1)-c1cccc3c1c-2cc1ccccc13
Potency [6]: inconclusive: 59.7 µM [activator, partial curve, poor fit]
Potency [10]: inconclusive: 29.9 µM [cytotoxic, partial curve]
Potency [2, 13]: active: 13.4 µM and active: 13.7 µM
Potency [11]: inconclusive: 39.8 µM [rising, partial curve, poor fit]
Potency [12]: inconclusive: 35.5 µM [fluorescent, partial curve, poor fit]
Potency [3]: active: 21.4 µM [fluorescent] and active: 49 µM [fluorescent]
Potency [4, 14]: inconclusive: 53.7 µM [fluorescent] and inconclusive: 54.9 µM [activator, single point]
Potency [9]: inactive and inconclusive: 30.6 µM [cytotoxic, single point]

O=C(O)c1ccc(S(=O)(=O)N(Cl)Cl)cc1
Potency [1]: inactive
Potency [9]: inconclusive: 69 µM [cytotoxic, single point]

C[C@H]1O[C@@H](O[C@H]2CC[C@@]3(C)[C@H](CC[C@@H]4[C@@H]3C[C@@H](O)[C@]3(C)[C@@H](C5=CC(=O)OC5)CC[C@]43O)C2)C[C@H](O)[C@@H]1O[C@H]1C[C@H](O)[C@H](O[C@H]2C[C@H](O)[C@H](O[C@@H]3O[C@H](CO)[C@@H](O)[C@H](O)[C@H]3O)[C@@H](C)O2)[C@@H](C)O1
Potency [1]: inconclusive: 0.298 µM [cytotoxic]
Potency [2, 13]: active: 1.68 µM
activity change, negative = inhibition [4, 14]: inconclusive: -84.5%

O=Nc1ccc(NO)cc1
activation [1]: inconclusive: -5.13% [at 95.1 µM]
Potency [2, 13]: active: 50.5 µM
activity change, negative = inhibition [4, 14]: inconclusive: 24.1% [at 78.9 µM]

CN(C)c1ccc(C(=C2C=CC(=[N+](C)C)C=C2)c2ccccc2)cc1
Potency [6]: inconclusive: 0.486 µM [activator, single point]
Potency [7]: active: 23.7 µM and active: 273 nM
Potency [10]: active: 17.2 µM
Potency [2, 13]: active: 29.8 µM and active: 77 nM
Potency [3]: inconclusive: 11 µM [cytotoxic, full curve]
Potency [4, 14]: inconclusive: 26.8 µM [inhibitor, single point] and inconclusive: 3.89 µM [cytotoxic, full curve]
Potency [5]: inconclusive: 23.9 µM [cytotoxic, single point] and active: 195 nM
